Reference: the supplement of paper PMC12632987
The full ranking holds about 1,800 sequences; the median of “median log2 fold change of GCK-ALFA target abundance (FLAG IP / Myc IP barcode read proportion)” is about 0.14, and the lowest 2% start at about -0.84. The list shows a part of the results.

T1: TRAF2, Q12933
T1 chain: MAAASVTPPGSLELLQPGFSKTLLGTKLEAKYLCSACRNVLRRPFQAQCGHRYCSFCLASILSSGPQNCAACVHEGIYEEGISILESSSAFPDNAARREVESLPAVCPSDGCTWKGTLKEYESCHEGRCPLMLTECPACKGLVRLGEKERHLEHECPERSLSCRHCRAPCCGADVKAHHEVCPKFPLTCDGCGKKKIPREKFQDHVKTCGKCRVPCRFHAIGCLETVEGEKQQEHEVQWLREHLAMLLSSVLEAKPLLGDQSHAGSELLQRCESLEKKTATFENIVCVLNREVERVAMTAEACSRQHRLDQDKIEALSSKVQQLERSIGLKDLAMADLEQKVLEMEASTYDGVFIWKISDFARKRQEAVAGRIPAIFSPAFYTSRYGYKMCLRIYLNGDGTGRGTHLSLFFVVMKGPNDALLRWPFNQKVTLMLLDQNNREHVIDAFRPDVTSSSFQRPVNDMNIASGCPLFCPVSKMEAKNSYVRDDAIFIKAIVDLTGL

B1: traf2_out_6_156_2444 (protein)
chain: MKEEILEETKKKLKELIKKLSEASEEKKIIYISKIAGTVYKALQKLRDAGFSLEEIKEFAEEINKFIKEELKKYGLDEKTANLTLSSINAVFEVALEEAK
B2: traf2_out_9_108_2577 (protein)
chain: MTREEKLEEIFEAVKKLAEEFLEENDLSEELKEDLKAAIEQAEKLYKEGEKETAIILLAISLANTAYKVGEEAVEKVLARLKEIDPRAYSAARRMVELLK
B3: traf2_out_18_3_1926 (protein)
chain: SAEELQEVSDRIDEIIDEARAKAREALARIRARHPEEAARVDELEALLDAGAGPFGILRELAELAKELGDEELAEELEEFLKEKSRELSELVDEYLKLRK
B4: traf2_out_6_156_2402 (protein)
chain: MVEEILEETNAEVEKLIKELAAASEEKKIAYISKIAGTVYRGLQRLREAGASVEELKAFGEKVNKELEKWLDKEGLPQSIKDLILSSVNAVFDVALAEAA
B5: traf2_out_13_95_1072 (protein)
chain: TKELAEKINEIADRAEERALALLAAAKAELAGDPAAVAVLDEAARLARTRGIRAAIHLLRQAKAANPAHAAAFDALIAELEAIRREAGREVARLIKEYEE
B6: traf2_out_13_95_1184 (protein)
chain: SEETKKKINEIADDMLEKVEKILTELAEKVKDDPEVKKAVEEIKKTAVTKGIHTAIGELKELAKKYPEYKELINEAIEKIEEIRREAGKKVAEILKEEEE
B7: traf2_out_13_95_1187 (protein)
chain: EEEKRKRYREVTNAIADELLDHADELIDRITAATGDEALGAELRRVLNRYGVSALIHFIREKAEEDPEHKELYERAARELEEKRREAGRRVAEAEKEIEA
B8: traf2_out_11_155_709 (protein)
chain: SKELEINQKLVDEVSEIADEALEKLEKLIEEIEKRDPEVAAELRAVLEANKDAGYRTKLLLAIAVLKKAGYEEEAKEVEKILEEAQKKANELAKEAEKKK
B9: traf2_out_18_117_1805 (protein)
chain: SDLAAAQAAFAAAVAAFEAERRRAQRVAGQLIEKHPHNLPEEATDAMVEFGEAARRHAELVQTAAAHADDLATLKALTAEVEALTARMREIRDRLEELLK
B10: traf2_out_13_95_1069 (protein)
chain: SAETAAKINALADEAEARVLALLDAARAALADDPEAVAALDAARRAAETRGISAAIHLLRQARAAQPAHAAAFDALIAELEAIRRELGRKVAEILKEEKE
B11: traf2_out_8_174_2573 (protein)
chain: AEAERLRIVADVATEFADILDEAEKKLEALKDLPLEELKKEAEKIKKEALAKIDEITAKYTAQVDAETAALINRVANSAKTQIENMVKGFIERKKLKEEA
B12: traf2_out_20_3_2195 (protein)
chain: SELEKKLEEELEEAIKLLKEAAKLADEETAKVIEELIKRIKESRSLSYSDQLVVLSEVRREVLLLAEEARKAGDEELAKVLEEAAEELNEAMNILYEIIK
B13: traf2_out_18_3_1898 (protein)
chain: SEEKLKEISEKIDEIIDEVTAKAREVLDWLEKNKPEVKERIAALRADLEAGAGPFGILRELARLAKEAGEEEKAKEIEEFLKEKSKELQELVDEYLELRA
B14: traf2_out_6_156_2388 (protein)
chain: MKEEILKETKEKLDELIKEMSKAPEEKKIVWINKIAGVVYRALQRLREAGASLEELKKFSEEIREHLEESAKKYGLPEDVKNLLLSSINAVFEVALEEAK
B15: traf2_out_17_178_1721 (protein)
chain: SKEEYRKKISELTDELIDLSEAAAARLLALARAEGTLSPEELAALEAARRRGSPNDVLALGERAAPRLASAAEAQALLDAFRKESRALAKEIAAAYEKYE
B16: traf2_out_5_189_2318 (protein)
chain: SPAAEEQAEDRALARRLAARARALLAELRARGASPEEIKEAVLAEIRKLPIEEAQLYTGIVYAIGTNIAEVEGDEALKAAFEEMRKEALALIAEREKAAA
B17: traf2_out_11_169_826 (protein)
chain: EEAERNRKINEKALELNDEAVKKLEEFALKLAKEAGLDVEAVKAIFEKNKGKSLSAIAAELIRYFTSLGKEEEAKKVLEKYEELKEEINKEMSKFLKELE
B18: traf2_out_1_158_909 (protein)
chain: STDVGLLASSVTSVLDVWAEEAKERGLERAAALFEELREEVLRLYEENKDASLEEMAEKVRELVEEFERRAEELDEEERELVRRAFRQIRSAIDQVVRLA
B19: traf2_out_6_156_2387 (protein)
chain: KKEEILEKAKKEIKELIEKLSKAPESKKIAYINKIAGTVYRALQQLRDLGASLEELEAFTKEVIEFVKKLMEENGLDESTKNLIIGSINAVGEVALEEAK
B20: traf2_out_11_155_715 (protein)
chain: EEKKKLNQELVDEVMAIADRAMAELEALIARVAAEDPEVAARLRAVLAANSDHGYTTKLLLAARVLREAGLEEEAAEVEAILARAQAEMNKLYKEYEKKL
B21: traf2_out_17_178_1687 (protein)
chain: TKEEQRKRISALTDELIDLTEATGAELLAIARAEGTLTPEELAALEAARRAGSNRTFLALAERIAPKLKTAAEARALLDAFRARAAALSAEIAAAYEKYE
B22: traf2_out_11_169_784 (protein)
chain: EEEEKNRKFNDFALEKEDEAKKELKKFALELAKKSGLDVEEVEKIFEDNKGKSLSAIAAALIKYFKEKGNEESAKAILEKYEELQEKINKEGSAFLKELE
B23: traf2_out_3_89_2291 (protein)
chain: SMEKEKKIKEAKERAERYVKGFEKNARRVAKEMLEEGHSLETLRGVLEAARTAIVETFGETLKEEGIDKETRDKILEELKKKLDEIVEEVVEEAKKRREE
B24: traf2_out_6_166_2470 (protein)
chain: EEEKLRRIREIVERLGEYPAEIVIEAFERLAEERDDRRALLARQIASGVRQGQKAGLPVSTILSAFADGMIALGVPIEEILELFEEALEIAEELAEEREE
B25: traf2_out_5_63_2352 (protein)
chain: SERDELTALAREADRLALAALKAREAGNEEEADRLLEEAVEDPELARLVIGILRGLARYYELRGDKPEQAKLARELAERLAARLAAREAAAAAAAEAAAA
B26: traf2_out_19_177_1993 (protein)
chain: SALEADREINKYANERNDEFEAAADALLARRPSLTPEEFLAAAIAVLREHLVVNTRIAARILEAAPPEYRPELLAAYEESKERANEELSKKMKEIEAKYA
B27: traf2_out_16_171_1441 (protein)
chain: SMEEREEELKKEIEEEAKRLIERMETAVEMAPLISKETGLTMEQIAAGFRSTMTDRIEAFREHFLKKAEDLSEEVKEYIEEKVKEMEKALEKAVKEILAL
B28: traf2_out_20_38_2008 (protein)
chain: SMEEEEKKREEHLIEVANAAYDEAEAEVAALKAAGKTVDEIAAATKARVRELLTAAGLEEEAAELVEDVDIAAKSPDAERLLVRILARAVTLVEQKKLQE
B29: traf2_out_20_3_2094 (protein)
chain: EELLKKLEEELKEAEELLKEAIKLADEETAKKLKKLLAKLKAAKELPLDDQLVALSEVRRETLELAEKAREEGKEELAEILEEAAEEINRAMNLAYKILE

Molecular target: T1, TRAF2, Q12933
Assay: median log2 fold change of GCK-ALFA target abundance (FLAG IP / Myc IP barcode read proportion) (log2 ratio); each designed protein is fused to an ALFA-tag nanobody in HEK293 cells to bring the named protein to FLAG-tagged glucokinase (GCK); Myc marks an untargeted standard; higher = target protein stabilised (more abundant)
Settings: target protein: 3xFLAG-MCP-GCK-ALFA reporter; HEK293 landing pad (RPLP)
How it was run: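 HEK293 landing-pad cells received a recombined binder library fused to the ALFA nanobody and were induced with 2 μg mL^−1 doxycycline, then transfected with a plasmid encoding a FLAG-tagged target and a Myc-tagged standard. Lysates were collected after 48 h for anti-FLAG and anti-Myc immunoprecipitation, and the circular RNA barcodes were reverse transcribed, amplified and sequenced. Target abundance for each binder is the median log2 ratio of FLAG to Myc barcode read proportions. Barcodes had to reach a proportion of at least 10^−7 in both replicates, each binder needed at least 3 barcodes per replicate, a pseudocount of 10^−6 was applied, and the two replicates were pooled.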

Binder	median log2 fold change
B1	-0.0805
B2	-0.396
B3	-0.0573
B4	0.00841
B5	-0.606
B6	-0.726
B7	-0.0218
B8	0.502
B9	0.223
B10	-0.107
B11	0.318
B12	0.098
B13	-0.192
B14	0.0494
B15	0.0361
B16	0.171
B17	0.166
B18	0.175
B19	-0.104
B20	0.284
B21	0.128
B22	-0.181
B23	-0.996
B24	-0.369
B25	0.253
B26	0.176
B27	0.00959
B28	0.328
B29	-0.11
